# Measured values reported in PubChem BioAssay AID686978 (National Center for Advancing Translational Sciences (NCATS), 2013).
# The campaign covered roughly 420,000 compounds. About 64,000 (15%) were called active. The inconclusive results got no clear call from the source; some entries with a clear call stand among them for comparison. Calls come from the whole dose curve; as a rule, active = well fitted inhibition curve with a large enough effect; inconclusive = small, poorly fitted or top-dose-only effect; inactive = flat fitted curve, though single readings scatter. Potencies of inconclusive entries are left out as doubtful fits.
# Assay: qHTS for Inhibitors of human tyrosyl-DNA phosphodiesterase 1 (TDP1): qHTS in cells in absence of CPT; note: nearly all actives have a fitted effect of over 55% in size
# Details: DT40 Tdp1-/- hTDP1 cells, no CPT, ATP luminescence, 48 h; activity change, negative = growth inhibition: at 46.2 µM (top of the series) unless noted
# Method in brief: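 Cells were dispensed at 400 per well, compounds added by pin tool, plates incubated ≥48 hr at 37 °C, then CellTiter-Glo added for 30 min at room temperature before luminescence reading. Line: DT40 Tdp1-/- complemented with hTDP1; camptothecin omitted.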
# % is set by controls: 0 for no effect and ±100 for the full control effect; potency is the fitted concentration of half-maximal effect; tags give direction and shape of the fitted curve.
SMILES,"activity change, negative = growth inhibition",Potency
CC(C)(C)c1nc2c(s1)CCc1onc(-c3ccc(Br)cc3)c1-2,inactive: -14%,
COc1ccccc1-c1sc2ccccc2c1-c1ccc2c(c1)OCCO2,,"inconclusive [inhibitor, single point]"
COc1ccc(-c2ccc(SCC(=O)NC3CCCC3)nn2)cc1,inactive: -6.73%,
COc1ccc(N2CCN(C3CCCCC3NS(=O)(=O)c3ccc(Cl)cc3)CC2)cc1 (configuration not stated),,"inconclusive [inhibitor, single point]"
Cc1cc(OCCN2CCCC2)cc(C(C)C)c1,,"inconclusive [inhibitor, single point]"
CCC(=O)Nc1cccc(C(=O)N(Cc2ccccc2)Cc2ccccc2)c1,,"inconclusive [inhibitor, single point]"
c1ccc(-c2ccccc2OCCCN2CCCCCC2)cc1,,"inconclusive [inhibitor, single point]"
CCOC(=O)c1[nH]c2ccc(F)cc2c1NC(=O)c1cc(OC)c(OC)c(OC)c1,,active: 23.1 µM
CN(Cc1cccc(-n2cccn2)c1)C(=O)CCc1nnc(C2CCCCC2)o1,inactive: 11.3%,
Cc1ccc(-n2[nH]c(C)c(/C=N/NC(=O)c3ccc(O)cc3O)c2=O)cc1,,active: 5.17 µM
CCC(CC)NC(=O)Nc1ccc(C)cc1,inactive: -1.5%,
Brc1cnc2nc[nH]c2c1,inactive: -13.3%,
Oc1ccccc1C=NN=Cc1ccccc1Cl,,"inconclusive [inhibitor, single point]"
CCCCn1c(=O)[nH]c(=O)c2c1nc(Cn1ncc(Cl)c(Cl)c1=O)n2CCC,,active: 2.59 µM
O=C(COc1nncc2ccccc12)NCCC1=CCCCC1,,"inconclusive [inhibitor, single point]"
CCOC(=O)N1CCC(NC(=O)CS(=O)(=O)Cc2nc(-c3cccc(OC)c3)oc2C)CC1,inactive: -8.52%,
COc1ccc2cc(C(=O)C3CCCN(C(=O)c4cncs4)C3)ccc2c1 (configuration not stated),,active: 11.6 µM
COc1ccc(NC(=O)c2noc3c2CCC3)cc1,inconclusive: -34.3% [inhibitor],
CC(=O)c1ccc(NC(=O)COC(=O)C2CC3C=CC2C3)cc1 (configuration not stated),,"inconclusive [inhibitor, single point]"
COCCn1c(SCC(=O)Nc2ccccc2C(F)(F)F)nc2ccccc2c1=O,,"inconclusive [inhibitor, single point]"
COc1cccc(OC)c1OCCCCCc1c(C)n[nH]c1C,,"inconclusive [inhibitor, partial curve]"
CCCOc1ccc(C(=O)Nc2cc(-c3nc4cc(C)cc(C)c4o3)ccc2C)cc1,,"inconclusive [inhibitor, single point]"
Cc1ccc(N=C2C(=O)Nc3ccc(Br)cc32)cc1,,active: 11.6 µM
COCCNC(=O)c1cc2c(c(-c3cccc(C#CC(C)(C)O)c3)n1)[C@@H](CCO)N(S(=O)C(C)(C)C)C2 (some centres not stated),inactive: -5.07%,

SMILES,"activity change, negative = growth inhibition",Potency
S=C(N/N=C/c1ccccc1Cl)Nc1ccccc1,,"inconclusive [inhibitor, single point]"
Cc1ccc2cc(CN(Cc3ccc(F)cc3)Cc3nnnn3C3CCCC3)c(=O)[nH]c2c1,,"inconclusive [inhibitor, single point]"
CCOc1ccc(C(=O)Nc2cc(S(=O)(=O)Nc3ccccc3Cl)ccc2N2CCOCC2)cc1,,"inconclusive [inhibitor, single point]"
Cc1ccc(SC[C@H](CC(C)C)N2CCN(CCc3ccccc3)CCC2=O)cc1,,"inconclusive [inhibitor, single point]"
CN1C(=O)c2ccccc2Sc2ccc(NC(=O)N3CCN(c4ccccc4F)CC3)cc21,,"inconclusive [inhibitor, single point]"
Cc1cccn2c(=O)c3cc(C(=O)NC4CCCCC4C)n(C)c3nc12 (configuration not stated),,"inconclusive [inhibitor, single point]"
O=C(CC1SC(=Nc2ccc(OC(F)F)cc2)N(CCN2CCOCC2)C1=O)Nc1ccc(F)cc1F (configuration not stated),,"inconclusive [inhibitor, single point]"
CC(O)(c1ccc(F)c(F)c1)c1nc(-c2ccc(Cl)cc2)cs1 (configuration not stated),,"inconclusive [inhibitor, single point]"
O=C(NCc1ccncc1)C(=O)NC1CC1,inactive: -5.04%,
CCCCN(CCCC)C(=O)CCS(=O)(=O)c1ccc2c(c1)n(C)c(=O)c(=O)n2C,,"inconclusive [inhibitor, single point]"
O=C(NCCCNC(=O)c1ccc(-c2cc(Cl)ccc2Cl)o1)c1cnccn1,,"inconclusive [inhibitor, single point]"
O=C1OCCN1CCN(CN1C(=O)CCC1=O)CN1C(=O)CCC1=O,,"inconclusive [inhibitor, single point]"
O=C(Nc1ccccc1Cl)Oc1ccc(-c2ccccc2)cc1,inactive: -21.4%,
Cc1nc(-c2ccc(O)c(O)c2)cs1,,"inconclusive [inhibitor, single point]"
CCNC(=O)c1ccccc1-c1nc(-c2ccccc2Cl)no1,,active: 18.4 µM
CC(C)NC(=O)C1CCN(C(=O)N2CCOc3ccc(Cl)cc32)CC1,,"inconclusive [inhibitor, single point]"
Cc1ccc2[nH]c(=O)c(CN(Cc3cccs3)Cc3nnnn3Cc3ccccc3)cc2c1,,"inconclusive [inhibitor, partial curve]"
NS(=O)(=O)c1ccc(CCNCC(=O)NCc2ccccc2Cl)cc1,inactive: 18.9%,
CCC(=O)N1CCCC1(C)C(=O)Nc1ccc(C)c(C)c1 (configuration not stated),inactive: -0.502%,
CCN(CC)c1ccc(NC(=O)CCCOc2cccc(C)c2)cc1,,"inconclusive [inhibitor, single point]"
O=c1[nH]c2ccccc2n1C1=CCCC1,,"inconclusive [inhibitor, full curve]"
O=C(N/N=C/c1ccc(F)cc1)c1c(O)c2ccccc2[nH]c1=O,,active: 5.17 µM
CC12CCC(=O)C=C1CCC1C2C(O)CC2(C)C1CCC2(O)C(=O)CO (configuration not stated),,"inconclusive [inhibitor, partial curve, poor fit]"
